Holding throughout (test): universal protein binding microarray (PBM)
What all share (settings): transcription factors of Arabidopsis thaliana; high values mean tight binding; most listed sequences are background and not binding sites; double strand, one strand shown

Assay [1] concerns the target T1, GST-ANAC092(1-176) (UniProt Q9FKA0).
T1 sequence: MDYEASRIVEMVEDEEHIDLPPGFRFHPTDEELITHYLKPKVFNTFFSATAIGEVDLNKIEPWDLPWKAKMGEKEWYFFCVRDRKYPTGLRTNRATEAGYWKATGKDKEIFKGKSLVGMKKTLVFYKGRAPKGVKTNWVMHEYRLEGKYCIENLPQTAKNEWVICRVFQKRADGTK

Assay [2] addresses GST-NTL6(1-168) (UniProt Q9SCK6).
Assay [3] concerns the target T2, GST-ANAC092(1-285) full length (UniProt Q9FKA0).
T2 sequence: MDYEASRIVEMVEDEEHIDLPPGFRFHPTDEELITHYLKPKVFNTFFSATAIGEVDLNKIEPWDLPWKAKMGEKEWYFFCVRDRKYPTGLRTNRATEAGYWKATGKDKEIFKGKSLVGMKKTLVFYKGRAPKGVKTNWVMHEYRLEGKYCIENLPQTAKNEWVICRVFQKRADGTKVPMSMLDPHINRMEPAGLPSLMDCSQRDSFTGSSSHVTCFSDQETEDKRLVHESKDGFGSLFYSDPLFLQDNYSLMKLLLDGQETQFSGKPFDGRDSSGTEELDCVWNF

Assay [4] has as its target T3, GST-NTL8 NAC domain (UniProt Q9XIN7).
T3 sequence: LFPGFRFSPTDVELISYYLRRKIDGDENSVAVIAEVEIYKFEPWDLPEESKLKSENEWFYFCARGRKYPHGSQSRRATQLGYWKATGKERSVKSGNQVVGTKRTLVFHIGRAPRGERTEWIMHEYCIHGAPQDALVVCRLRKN

The target in assay [5] is T4, GST-SND1(1-203) (UniProt Q9LPI7).
T4 sequence: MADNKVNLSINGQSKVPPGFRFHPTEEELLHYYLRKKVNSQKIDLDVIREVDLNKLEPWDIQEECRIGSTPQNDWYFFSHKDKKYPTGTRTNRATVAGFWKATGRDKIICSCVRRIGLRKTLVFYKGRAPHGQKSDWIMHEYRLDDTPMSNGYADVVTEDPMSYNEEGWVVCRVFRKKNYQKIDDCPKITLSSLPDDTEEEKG

Assay [6] concerns the target T5, GST-VND3 NAC domain (UniProt Q9FH59).
T5 sequence: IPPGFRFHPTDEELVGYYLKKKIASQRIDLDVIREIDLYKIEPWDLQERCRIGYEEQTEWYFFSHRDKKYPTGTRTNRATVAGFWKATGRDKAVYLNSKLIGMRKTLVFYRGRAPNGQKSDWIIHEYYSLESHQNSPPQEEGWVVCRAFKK

Assay [7] deals with T6, GST-VOZ2 (Arabidopsis thaliana) (UniProt Q9SLB9).
T6 sequence: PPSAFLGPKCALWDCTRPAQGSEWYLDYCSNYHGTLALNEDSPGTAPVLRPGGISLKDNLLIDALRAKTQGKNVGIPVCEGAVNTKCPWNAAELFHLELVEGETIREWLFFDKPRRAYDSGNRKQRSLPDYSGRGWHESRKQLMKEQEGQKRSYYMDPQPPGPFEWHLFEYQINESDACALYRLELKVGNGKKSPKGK

The target of assay [8] is GST-WRKY1(266-371) (UniProt Q9SI37).
The target of assay [9] is T7, GST-ANAC019 NAC domain (UniProt Q9C932).
T7 sequence: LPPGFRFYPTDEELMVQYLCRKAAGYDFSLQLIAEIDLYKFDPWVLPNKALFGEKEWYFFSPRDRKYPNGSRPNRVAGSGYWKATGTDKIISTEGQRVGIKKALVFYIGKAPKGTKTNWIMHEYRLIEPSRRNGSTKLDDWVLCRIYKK

For assay [10], the target named is T8, GST-ATAF1 NAC domain (UniProt Q39013).
T8 sequence: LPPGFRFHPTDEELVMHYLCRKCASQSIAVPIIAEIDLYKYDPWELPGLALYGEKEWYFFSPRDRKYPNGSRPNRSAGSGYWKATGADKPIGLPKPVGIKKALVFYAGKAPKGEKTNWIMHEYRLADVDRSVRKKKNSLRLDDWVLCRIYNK

Assay [11] deals with T9, GST-NST2(1-184) (UniProt Q9M274).
T9 sequence: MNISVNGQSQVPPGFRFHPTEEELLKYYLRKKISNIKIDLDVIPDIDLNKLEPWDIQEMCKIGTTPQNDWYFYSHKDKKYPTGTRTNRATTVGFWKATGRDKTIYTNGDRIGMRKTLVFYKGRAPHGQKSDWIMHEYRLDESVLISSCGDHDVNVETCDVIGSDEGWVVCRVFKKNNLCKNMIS

Assay [12] concerns the target T10, GST-VND7 NAC domain (UniProt Q9C8W9).
T10 sequence: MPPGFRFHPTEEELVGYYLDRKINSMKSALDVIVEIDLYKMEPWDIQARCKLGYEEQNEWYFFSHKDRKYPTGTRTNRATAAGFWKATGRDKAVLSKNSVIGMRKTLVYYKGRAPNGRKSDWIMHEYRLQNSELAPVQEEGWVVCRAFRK

Assay [13] deals with T11, GST-ANAC055(1-171) (UniProt Q9LDY8).
T11 sequence: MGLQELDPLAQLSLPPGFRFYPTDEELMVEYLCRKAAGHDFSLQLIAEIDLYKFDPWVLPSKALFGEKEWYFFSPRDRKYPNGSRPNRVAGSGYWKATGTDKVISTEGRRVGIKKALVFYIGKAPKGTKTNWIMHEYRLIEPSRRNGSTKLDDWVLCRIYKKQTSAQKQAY

Assay [14] concerns the target T12, GST-NAP(1-166) (UniProt O49255).
T12 sequence: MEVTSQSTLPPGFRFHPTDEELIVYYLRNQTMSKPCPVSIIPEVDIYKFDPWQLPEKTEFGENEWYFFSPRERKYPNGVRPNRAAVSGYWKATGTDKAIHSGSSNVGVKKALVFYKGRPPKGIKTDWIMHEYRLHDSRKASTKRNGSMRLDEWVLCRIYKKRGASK

This is a selection; strong and weak results do not stand in their true shares. For part of these data: At the low end of the ranking the order means little. The list shows a part of the results. For part of these data: Construct or isoform of the protein are uncertain.

The values below come from paper PMC4081100.

In the case of TACACGTA, the binding signal in assay [1] is 0.382 E-score; in assay [2], 0.0256 E-score; in assay [3], 0.411 E-score; in assay [4], -0.0294 E-score; in [5], 0.251 E-score; in assay [6] it was 0.375 E-score. Further, the binding signal in assay [7] was 0.0684 E-score; in [8], -0.0035 E-score.

Regarding ACGTCAAA, the binding signal was 0.0817 E-score in assay [2]; 0.262 E-score in [9]; 0.176 E-score in assay [10]; 0.261 E-score in assay [11]; 0.00592 E-score in [4]; 0.361 E-score in [5]. Further, the binding signal came to 0.252 E-score in assay [6], 0.25 E-score in assay [12] and 0.181 E-score in assay [7].

With GATACGTA, the binding signal was 0.0687 E-score in assay [2]; 0.428 E-score in [9]; 0.415 E-score in assay [13]; 0.341 E-score in assay [10]; 0.458 E-score in [14]; -0.0218 E-score in [4]. Moreover, the binding signal in [5] was 0.257 E-score; in assay [6] it was 0.405 E-score; in [7] it was -0.0588 E-score.

Turning to GAAGTCAA, the binding signal in assay [1] was -0.00489 E-score; in assay [2], 0.104 E-score; in assay [13] it was -0.0213 E-score; in assay [10], 0.0967 E-score; in assay [3] it was -0.016 E-score; in [14], -0.0724 E-score. Moreover, the binding signal in assay [11] is -0.00448 E-score; in assay [4], 0.0673 E-score; in assay [5] it was -0.0112 E-score; in [6], 0.00579 E-score; in [7] it was -0.127 E-score.

For AGTCTTTG, the binding signal in [2] was 0.0583 E-score; in assay [10], 0.0487 E-score; in [3] it was 0.00089 E-score; in assay [14], -0.0204 E-score; in assay [11], 0.0222 E-score; in [4], 0.017 E-score. Moreover, the binding signal is -0.0478 E-score in [5], 0.0129 E-score in assay [6] and -0.0832 E-score in assay [7].

ACGCAATA: the binding signal was found to be 0.444 E-score in assay [1]; 0.00587 E-score in assay [2]; 0.212 E-score in assay [13]; 0.419 E-score in assay [5]; 0.312 E-score in assay [6]; 0.0762 E-score in [7].

Regarding GTCAATAA, the binding signal is -0.00515 E-score in assay [1]; 0.0176 E-score in assay [9]; 0.0333 E-score in assay [3]; 0.122 E-score in assay [14]; 0.118 E-score in assay [11]; -0.02 E-score in assay [4]. The binding signal came out at 0.0398 E-score in assay [5], 0.0493 E-score in [6], 0.0672 E-score in assay [7] and 0.457 E-score in [8].

Regarding CCACGGAA, the binding signal in [2] was 0.117 E-score; in assay [9] it was 0.427 E-score; in assay [4], 0.107 E-score; in assay [5], 0.0354 E-score; in [6] it was 0.343 E-score; in assay [7] it was -0.0953 E-score. The sequence further yielded a binding signal in assay [8] of 0.0233 E-score.
